Laboratory results from PubChem BioAssay AID1963576 (National Center for Advancing Translational Sciences (NCATS), 2024).
The campaign covered roughly 46,000 compounds. About 60 (0.1%) were called active. About 3% were inconclusive and are not listed. The call rests on the fitted dose curve; in most records, active means well fitted inhibition curve with a large enough effect; inconclusive means small, poorly fitted or top-dose-only effect; inactive means no such curve, though single readings can be large or run the other way. The list shows a part of the results.

Experiment: Primary qHTS assay for Inhibitors of ovarian cancer metastasis using an organotypic tumor microenvironment (TME) model. Further: nearly all actives have a fitted effect of over 65% in size.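 On activity change, negative = inhibition: plate controls were DMSO wells for no effect and tomatine positive control wells for full effect.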
Settings: SKOV3ip1-GFP adhesion/invasion on 3D omental model, fluorescence; series mostly up to 45.8 µM; activity change, negative = inhibition: at the top concentration
Method in brief: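 Primary human omental fibroblast/mesothelial 3D culture pre-formed 48 h. SKOV3ip1-GFP cells added with compounds (0.36-46 umol/L), incubated 2 h RT/16 h 37 C, fixed; GFP cells quantified at 488/509 nm.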

outcome, inactive:
CCOC(=O)N1CCc2c(sc3c2c(=O)n(CCc2ccccc2)c(=O)n3CC(=O)Nc2ccccc2C)C1
Cc1ccc(-c2nn(CCC(=O)Nc3ccc(OC(F)(F)F)cc3)c(=O)c3ccccc23)cc1
CCCC(=O)N1c2nc(-c3ccco3)nn2C2(CCCCC2)[C@@H]2CCCC[C@@H]21
CCCCCn1c(CCCNC(=O)c2ccccc2)nc2ccccc21
Cc1ccccc1NC(=O)CSc1nccn1C
Cc1nn(C)c2c1c(C(F)(F)F)cc(=O)n2CC(=O)Nc1ccc(F)cc1F
O=S(=O)(NCC(c1ccco1)S(=O)(=O)c1cccs1)c1ccccc1 (stereo not given)
Cc1ccc(OC(C)C(=O)N2CCN(CCc3ccccn3)CC2)cc1C (stereo not given)
Cc1cc(F)ccc1NC(=O)C1CCCN(C(=O)c2cnn(-c3ccccc3)c2-n2cccc2)C1 (stereo not given)
COc1cccc(CNC(=O)CCc2c(C)nn(-c3ccc(N4CCCC4)nn3)c2C)c1
O=C(Nc1ccc2oc(-c3cccc4c(Br)cccc34)nc2c1)c1cccc(Cl)c1
CCCN(c1ccccc1F)S(=O)(=O)c1cc(-c2cc(C)no2)ccc1C
CC(C)(C)C1CCc2c(sc(NC(=O)c3cc(-c4ccc(F)cc4)on3)c2C#N)C1 (stereo not given)
CSc1cccc(Nc2cc(C(=O)NC3CCCCC3)c3ccccc3n2)c1
Cc1cc(C)cc(N2C(=O)CSC23C(=O)N(CC(N)=O)c2ccccc23)c1 (stereo not given)
CCCN(CCC)c1cc(C)nc2nc(-c3ccc(C(C)(C)C)cc3)nn12
COCCN(Cc1ccc(C)c(Br)c1)S(=O)(=O)c1ccc2[nH]c(=O)ccc2c1
Cc1cccc(N2CCN(C(=O)c3cc4ccc5cccnc5c4[nH]3)CC2)c1C
CC(C)Cc1nn2c(=O)cc(COC(=O)c3cccc(NC(=O)c4ccccc4)c3)nc2s1
CCc1ccccc1NC(=O)N1CCN(Cc2nc3ccc(C)cc3o2)CC1
Cc1noc(C)c1S(=O)(=O)N(CC(=O)Nc1ccc(C(F)(F)F)cc1)c1ccc(C(C)C)cc1
Cc1ccc2nc(Nc3cccc(C(F)(F)F)c3)c3nnnn3c2c1

Activity change, negative = inhibition, inactive:
CCCSc1nnc(NC(=O)c2cc(=O)c3ccccc3o2)s1 -23.6%
COc1ccc(S(=O)(=O)N(CCc2ccccc2)CC(=O)Nc2cc(Cl)ccc2C)cc1 -2.82%
COc1ccccc1C(=O)Nc1ccccc1OCc1cc(=O)n2cc(C)sc2n1 -28.9%
Cc1ccc(C)c(OCCCC(C)(C)C(=O)O)c1 -24.4%
CCOc1cccc(C(=O)N(Cc2ccc(C(C)C)cc2)C2CCS(=O)(=O)C2)c1 (stereo not given) -2.14%
Cc1ccc(NC(=O)C2CCN(C(=O)c3sc4nc[nH]c(=O)c4c3C)CC2)cc1F -1.59%
COc1cccc(NC(=O)Cn2c(=O)n(-c3ccc(C)cc3)c(=O)c3ccccc32)c1 1.41%
O=C(Nc1ncc(Cc2ccc(F)cc2)s1)c1ccc2c(c1)CC(c1ccccc1)OC2=O (stereo not given) 0.71%
CC(C)Oc1ccc(C(=O)NCCc2csc(-c3cccc(F)c3)n2)cc1 -2.3%
Cc1ccc(-c2noc(-c3ccccc3OCC(=O)Nc3ccccc3[N+](=O)[O-])n2)cc1 0.205%
Cc1ccccc1NC(=O)c1c(C)oc2ccc(O)c(CN(C)Cc3ccccc3)c12 -11.3%
CCN1C(=O)C(Cc2nc3ccccc3c(=O)n2-c2cccc(C)c2)c2ccccc21 (stereo not given) 0.182%
Cc1cccc(N(C)C(=O)Cn2cnc3nc4c(cc3c2=O)CCCC4)c1 -4.65%
Cc1nnc(N2CCC(C(=O)NC3CCC(C)CC3)CC2)c2nn(-c3ccc(Cl)cc3)c(C)c12 (stereo not given) 9.14%
COc1ccc(OC(=O)c2cn(-c3cccc(OC)c3)c(=O)c3ccccc23)cc1 -9.56%
CC(CCc1ccccc1)NC(=O)CSc1n[nH]c(-c2ccccc2Cl)n1 (stereo not given) 9.25%
Cc1cc(Cl)ccc1NC(=O)C1CCCN(c2nnc(C)c3c(C)n(-c4ccccc4)nc23)C1 (stereo not given) 1.95%
COc1cccc(N2CC(NC(=O)c3cccs3)CC2=O)c1 (stereo not given) 13%
Cc1cc(C)c(NC(=O)C(C)n2nc(C)c3sc4ccccc4c3c2=O)c(C)c1 (stereo not given) 18.3%
CCCc1nnc(NC(=O)CSc2nnc3c4ccccc4n(CC)c3n2)s1 0.549%
CCc1ccc(CNC(=O)c2ccc(Cn3c(=O)c4cccn4c4cccnc43)cc2)cc1 -9.23%
Cc1nc2ccccc2n1CCc1nc2c3ccccc3nc(SCc3ccccc3F)n2n1 -1.32%
Cc1cccc(OCC(=O)Nc2ccc3nc(SCc4ccccc4)sc3c2)c1 3.18%
CCOc1ccc(C(=O)N2CC(=O)Nc3ccc(F)cc3C2c2ccc(F)cc2)cc1 (stereo not given) -3.28%
COc1ccc(N(CC(=O)N2CCN(c3cccc(Cl)c3)CC2)S(=O)(=O)c2c(C)noc2C)cc1 32.3%
Cc1ccc(OCCCC(=O)Nc2sc3c(c2C(N)=O)CCC(C)C3)cc1 (stereo not given) 3.76%
CC(C)NC(=O)C1CCCN(S(=O)(=O)c2ccc3c(ccn3C)c2)C1 (stereo not given) 4.89%
CCc1cccc(C)c1NC(=O)c1cc(CN2CCCC2)on1 -12.3%
COCCn1c(C)cc(O)c(C(c2cccc(F)c2)N2CCN(c3ccccc3)CC2)c1=O (stereo not given) -3.45%
CCc1nnc2c(Nc3cc(OC)c(Cl)cc3OC)nc3ccccc3n12 4.32%
COc1ccc(-c2oc3ncn4nc(COc5ccc(Cl)cc5)nc4c3c2-c2ccc(OC)cc2)cc1 4.68%
Cc1ccc(OCC(=O)OCc2cc(=O)n3nc(C4CC4)sc3n2)cc1C 7.64%
Cc1cc(C)cc(-n2ccn3cnnc3c2=O)c1 23.4%
CCC(C(=O)NCCc1ccc(OC)c(OC)c1)n1nc(C)c2sc3ccccc3c2c1=O (stereo not given) 4.74%
CCCCCCSc1nc(N)c2c3c(sc2n1)CCCC3C (stereo not given) 8.56%
CCc1ccc2occ(CC(=O)Nc3c(C(=O)c4ccc(F)cc4)oc4ccccc34)c2c1 -13.5%
COc1ccc(C)cc1NC(=O)Cn1c(=O)oc2cc(S(=O)(=O)N3CCCCCC3)ccc21 -6.95%
Cn1cc(C=CC(=O)c2cccc(F)c2)cc1C=CC(=O)NO -0.557%
COc1cc2c(cc1OC)[C@@H]1Cc3ccc(OC)c(OC)c3CN1CC2 9.54%
CN(C)c1ccc(-c2nc3ccc(Cl)cn3c2Nc2ccc3c(c2)OCCO3)cc1 16.8%
Cn1nc(-c2ccccc2)c(-c2ccccc2)c(C(=O)Nc2ccccc2C(N)=O)c1=O -4.46%
CCC[C@@H](NC(=O)[C@@H]1[C@H]2CCC[C@@H]2CN1C(=O)[C@@H](NC(=O)[C@@H](NC(=O)c1cnccn1)C1CCCCC1)C(C)(C)C)C(=O)C(=O)NC1CC1 -8%
CC(=O)N1CCc2cc(Br)cc(S(=O)(=O)CCC(=O)N3CCN(c4cccc(C)c4C)CC3)c21 -5.85%
CCOC(=O)c1ccc(NC(=O)c2cc(=O)c3ccc(C)c(C)c3o2)cc1 -1.73%
CCOCCCNC(=O)Cn1ncc2c([nH]c3ccc(C)cc32)c1=O -7.56%
Cc1ccc(C)c(N2CCN(C3(c4ccccc4)C(=O)c4ccccc4C3=O)CC2)c1 -12.2%
Cc1cccc(Cn2cc3c(=O)n(CC(=O)Nc4cccc(C)c4C)nc-3c3cc(F)ccc32)c1 -9.63%
Cc1c(C(=O)Nc2cccc(C(F)(F)F)c2)sc2nc3n(c(=O)c12)CCC3 -7.34%
CCCN(CCC)CCNC(=O)c1cc2c(=O)oc3ccc(C)cc3c2s1 1.98%
COc1ccc(NC(=O)c2cc(C3CC3)nc3c2c(C)nn3-c2ccccc2)c(OC)c1 4.39%
Cc1ccc(-n2ncc3c(Nc4ccc(Oc5ccccc5)cc4)ncnc32)cc1 -8.88%
COCCn1c(C)cc(O)c(C(c2ccccc2)N2CCCCC2)c1=O (stereo not given) 72.1%
CCOc1ccc(/C=C/c2nc(C#N)c(NCc3ccc(OC)cc3)o2)cc1 3.31%
Clc1ccccc1CNCCCSc1nnnn1-c1ccccc1 -9.44%
CCOCCCNC(=O)Cn1ncc2c([nH]c3ccccc32)c1=O 5.31%
O=C(NCc1ccc2c(c1)CCN2C(=O)c1ccc(F)cc1)c1c(F)cccc1F 1.4%
O=C(CCCN1CCC(O)(c2ccc(Cl)cc2)CC1)c1ccc(F)cc1 17.1%
CCOC(=O)N1CCN(Cc2nc3cc(NC(=O)CC(C)C)ccc3n2C(C)C)CC1 -0.648%
COC(=O)c1ccc(NC(=O)C(=O)NCCc2csc3nc(-c4ccccc4F)nn23)cc1 -0.0121%
CCN(CC)S(=O)(=O)c1ccc2c(c1)N(CC(=O)Nc1cccc(C)c1C)C(=O)C1CCCN21 (stereo not given) 3.93%
CC1=C(C(=O)Nc2ccccc2)C(c2ccc(F)cc2)n2nc(SCc3cc(C)ccc3C)nc2N1 (stereo not given) 35.7%
Nc1nonc1-c1nc2ccccc2n1CC(=O)Nc1cccc(C(F)(F)F)c1 -20.8%
COc1ccc(C)cc1NC(=O)CSc1ncc2c(n1)-c1ccc(Cl)cc1N(Cc1ccccc1)S2(=O)=O -1.64%
Cc1ccc(NC(=O)CCN2C(=O)c3ccccc3Sc3ncccc32)cc1 9.83%
COc1cc(OC)c(NC(=O)C(CC(C)C)N2Cc3ccccc3C2=O)cc1Cl (stereo not given) -2.62%
CCOc1ccccc1NC(=O)CSc1cn(CC(=O)N2CCCCCC2)c2ccccc12 -9.55%
Cc1cc2oc(C(=O)Nc3sc4c(c3C(=O)NCC3CCCO3)CCCC4)cc(=O)c2cc1C (stereo not given) -7.85%
Cc1ccc(C)c(N2CCN(C(=O)NCc3noc4ccccc34)CC2)c1 6.58%
CCS(=O)(=O)N1CCc2cc(C(=O)Nc3cc(C)cc(C)c3)ccc21 -3.39%
COC(=O)c1ccc2c(c1)N(CC(=O)Nc1ccc(C)c(C)c1)C(=O)c1ccccc1S2 -0.437%
CCCCN(CC)CCNC(=O)CN1C(=O)COc2ccc(S(=O)(=O)N3CCOCC3)cc21 -1.85%
COc1ccc(OC)c(CCNc2nc3cc(OC)c(OC)cc3c3nc(-c4cccnc4)nn23)c1 1.23%
CCc1c(C)sc(NC(=O)c2cc(-c3ccc(OC)c(OC)c3)on2)c1C#N 2.67%
